Results from PubChem BioAssay AID1345082 (National Center for Advancing Translational Sciences (NCATS), 2018).
Hit rate of the full screen: of about 94,000 compounds, about 4,000 (4.3%) were called active. The inconclusive results got no clear call from the source; some entries with a clear call stand among them for comparison. Calls follow the shape of the dose curve; as a rule, active = well fitted inhibition curve with a large enough effect; inconclusive = small, poorly fitted or top-dose-only effect; inactive = no such curve, though single readings can be large or run the other way. Potencies of inconclusive entries are doubtful fits and often do not repeat.

Assay: Cytotoxic Profiling in NIH 3T3 Cell Line of Diverse Libraries Using Quantitative High-Throughput Screening; also: nearly all actives have a fitted effect of over 55% in size
Settings: NIH 3T3 viability, CellTiter-Glo ATP luminescence, 48-72 h; activity change, negative = cytotoxicity: at 96.7 µM (top of the series) unless noted; series mostly up to 96.7 µM
Outline: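 Luminescent ATP readout (CellTiter-Glo, 10 min RT) after 48 or 72 hr compound exposure of NIH 3T3 cells seeded at 400 cells/well in 1536-well format; quantitative HTS.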
% is scaled to controls: 0 for no effect and ±100 for the full control effect; potency is read from the fitted curve at half-maximal effect; tags tell the direction and shape of the fitted curve.

Row | Compound | Potency | activity change, negative = cytotoxicity | outcome
1 | COc1ccc2cc(C3CN(C(=O)Cc4ccc(O)cc4)CCO3)ccc2c1 (stereo not drawn) | inconclusive: 44.7 µM [inhibitor, partial curve, poor fit] | – | –
2 | Cc1nc(C2CC(O)C2)cc(N2CCN(c3cnn(C)c(=O)c3)CC2)n1 (stereo not drawn) | – | inactive: -0.809% | –
3 | CN(Cc1cn(-c2ccccc2)nn1)C1CCSCC1 | inconclusive: 39.8 µM [inhibitor, full curve, poor fit] | – | –
4 | CCN(CC)Cc1cnc2c(C(=O)N3CCC(C(N)=O)CC3)cnn2c1 | – | – | inactive
5 | CCCc1ccc(S(=O)(=O)N2CCC3(CC2)[C@H](C(=O)OCC)[C@@H](OC)C(=O)N3C)cc1 | – | inactive: -24.1% | –
6 | COc1cc(F)ccc1-c1cc(-c2ccc(=O)[nH]c2)c2cncn2c1 | inconclusive: 35.5 µM [inhibitor, partial curve, poor fit] | – | –
7 | CN(C)c1ccc(CN2CC[C@H](c3nc4ccc(C#N)cc4[nH]3)C2)cc1 | inconclusive: 89.1 µM [inhibitor, partial curve, poor fit] | – | –
8 | COCCn1ncc(N2CCCC(CC(=O)Nc3ccc(C)cc3)C2)cc1=O (stereo not drawn) | inconclusive: 70.8 µM [inhibitor, single point] | – | –
9 | O=[S+]1([O-])NCC2(CCN(Cc3ccsc3)CC2)Oc2ncccc21 | – | – | inactive
10 | CCOC(=O)C(Cc1ccc(Cl)c(N2CCN(C(=O)OC(C)(C)C)CC2)c1)OC (stereo not drawn) | inconclusive: 44.7 µM [inhibitor, partial curve, poor fit] | – | –
11 | CC(C)CCN1CCc2nc(C3CC3)nc(-c3ccc(O)cc3)c2C1 | – | inactive: -10.5% | –
12 | O=C(Nc1cccnc1)[C@@H]1C[C@@H](c2ccc(F)cc2)N([S+](=O)([O-])c2cccnc2)C1 | inconclusive: 50.1 µM [inhibitor, partial curve, poor fit] | – | –
13 | O=C(NC1CC1)[C@@H]1C[C@H](Oc2ccccc2)CN1C(=O)CCCc1c[nH]c2ccccc12 | inconclusive: 50.1 µM [inhibitor, partial curve, poor fit] | – | –
14 | O=C(c1ccc(C(F)(F)F)cc1)N1CCC2(CC1)C(=NC1CCCCC1)NC(=O)N2c1cc(F)cc(F)c1 | inconclusive: 44.7 µM [inhibitor, partial curve, poor fit] | – | –
15 | CN(Cc1ccc(-c2ccccc2)cc1)C(=O)c1ccccc1F | inconclusive: 89.1 µM [inhibitor, partial curve, poor fit] | – | –
16 | COCCNC(=O)C1COC2(CCN(C(=O)c3ccc(F)cc3)CC2)N1C(=O)c1ccccc1C (stereo not drawn) | inconclusive: 70.8 µM [inhibitor, partial curve, poor fit] | – | –
17 | O=C(CCC(F)(F)F)N1CCc2nc(-c3ccc(Cl)cc3)[nH]c2C1 | inconclusive: 56.2 µM [inhibitor, partial curve, poor fit] | – | –
18 | COc1ccc2c(c1)nc1n2[C@@H](CNCc2ccccc2)COC1 | inconclusive: 79.4 µM [inhibitor, partial curve] | – | –
19 | O=C(CC1CCN(S(=O)(=O)c2ccc(F)cc2)C1)NCc1ccccc1 (stereo not drawn) | – | inactive: -7.68% | –

Row | Compound | Potency | activity change, negative = cytotoxicity | outcome
20 | C[S+](=O)([O-])N1CCC(Cn2ccc3c(N4CCOCC4)nc(-c4ccc(F)cc4)cc32)CC1 | inconclusive: 44.7 µM [inhibitor, partial curve, poor fit] | – | –
21 | COc1ccc(OC)c(NC(=O)Cn2c(N3CCC(C)CC3)nc(C)cc2=O)c1 | inconclusive: 12.6 µM [inhibitor, partial curve, poor fit] | – | –
22 | Cc1oc(C2CCN(C(=O)CCC(=O)n3nc(C)c4ccccc43)CC2)nc1C(=O)N1CCCC1 | inconclusive: 50.1 µM [inhibitor, partial curve, poor fit] | – | –
23 | CC(C)CC(=O)N1CCOCC12CCN(CCCc1ccccc1)CC2 | inconclusive: 100 µM [inhibitor, partial curve, poor fit] | – | –
24 | O=C(NCc1ccc2c(c1)OCO2)C1CC(c2ccccc2)CN(C(=O)c2ccccc2F)C1 (stereo not drawn) | inconclusive: 44.7 µM [inhibitor, partial curve, poor fit] | – | –
25 | O=C(Cc1c(F)cccc1Cl)Nc1ccc2ncnc(N3CCCC3)c2c1 | inconclusive: 50.1 µM [inhibitor, partial curve, poor fit] | – | –
26 | O=C(NC1CCN(c2ccnc3ccnn23)C1)c1ccc(C(F)(F)F)cc1 (stereo not drawn) | inconclusive: 22.4 µM [inhibitor, partial curve] | – | –
27 | C=CCNC(=O)CCc1c(C)nn(-c2ccc(F)cc2)c1Oc1ccccc1C | inconclusive: 50.1 µM [inhibitor, partial curve, poor fit] | – | –
28 | O=S(=O)(Cc1ccccc1)NC[C@H]1COCc2nc3cccnc3n21 | inconclusive: 56.2 µM [inhibitor, partial curve, poor fit] | – | –
29 | O=C(Nc1cccc(-c2nnc3n2CCCC3)c1)c1ccccc1F | inconclusive: 56.2 µM [inhibitor, partial curve, poor fit] | – | –
30 | Cn1nc(C(=O)N2CC[C@@](C)(O)[C@@H](O)C2)cc1-c1cccs1 | – | inactive: -6.63% | –
31 | O=S(=O)(NCC1(COc2ccc(C(F)(F)F)cn2)C[C@@H](O)[C@@H](O)C1)c1ccc(Cl)cc1 (stereo partly drawn) | inconclusive: 70.8 µM [inhibitor, single point] | – | –
32 | CNC(=O)[C@@H]1CN(Cc2ccc3cc[nH]c3c2)C[C@H]1c1nc(C)no1 | – | inactive: -1.75% | –
33 | COc1ccccc1Nc1ccnc(N2CCC(NC(=O)Cc3ccc(F)cc3)CC2)n1 | inconclusive: 12.6 µM [inhibitor, full curve, poor fit] | – | –
34 | CC(C)c1nc2c(c(-c3ccc(O)cc3)n1)CCN(C(=O)Cc1cccc(Cl)c1)CC2 | inconclusive: 44.7 µM [inhibitor, partial curve, poor fit] | – | –
35 | COc1cccc(Nc2cc3c(cn2)NCCN(Cc2ccccc2)C3)c1 | inconclusive: 50.1 µM [inhibitor, partial curve, poor fit] | – | –
36 | COc1ccc(CC(=O)N2CC(=O)N(CCCc3ccccc3)CC(O)C2)cc1 (stereo not drawn) | – | inactive: -15% | –
37 | Cc1ccc(CCNC(=O)c2nnn3c2COC(c2ccc(Cl)cc2)C3)cc1 (stereo not drawn) | – | – | inactive
38 | COCCn1c(C)cc(C(=O)N2CCC[C@H](n3c(=O)n(C)c4cccnc43)C2)c1C | inconclusive: 50.1 µM [inhibitor, partial curve, poor fit] | – | –
